Test results from the supplement of paper PMC3334620.
Over roughly 33,000 sequences, “E-score (-0.5 to 0.5)” has its median near -0.012; the highest 2% begin near 0.29. The list shows a part of the results.

biological target: T1, Ybr033w (UniProt P38073); experiment: PBM E-score (8-mer binding enrichment) (E-score (-0.5 to 0.5)); higher = stronger / more preferred TF binding; most listed sequences are background and not binding sites; details: protein concentration: 200 nM; construct: GST-full length
T1 sequence: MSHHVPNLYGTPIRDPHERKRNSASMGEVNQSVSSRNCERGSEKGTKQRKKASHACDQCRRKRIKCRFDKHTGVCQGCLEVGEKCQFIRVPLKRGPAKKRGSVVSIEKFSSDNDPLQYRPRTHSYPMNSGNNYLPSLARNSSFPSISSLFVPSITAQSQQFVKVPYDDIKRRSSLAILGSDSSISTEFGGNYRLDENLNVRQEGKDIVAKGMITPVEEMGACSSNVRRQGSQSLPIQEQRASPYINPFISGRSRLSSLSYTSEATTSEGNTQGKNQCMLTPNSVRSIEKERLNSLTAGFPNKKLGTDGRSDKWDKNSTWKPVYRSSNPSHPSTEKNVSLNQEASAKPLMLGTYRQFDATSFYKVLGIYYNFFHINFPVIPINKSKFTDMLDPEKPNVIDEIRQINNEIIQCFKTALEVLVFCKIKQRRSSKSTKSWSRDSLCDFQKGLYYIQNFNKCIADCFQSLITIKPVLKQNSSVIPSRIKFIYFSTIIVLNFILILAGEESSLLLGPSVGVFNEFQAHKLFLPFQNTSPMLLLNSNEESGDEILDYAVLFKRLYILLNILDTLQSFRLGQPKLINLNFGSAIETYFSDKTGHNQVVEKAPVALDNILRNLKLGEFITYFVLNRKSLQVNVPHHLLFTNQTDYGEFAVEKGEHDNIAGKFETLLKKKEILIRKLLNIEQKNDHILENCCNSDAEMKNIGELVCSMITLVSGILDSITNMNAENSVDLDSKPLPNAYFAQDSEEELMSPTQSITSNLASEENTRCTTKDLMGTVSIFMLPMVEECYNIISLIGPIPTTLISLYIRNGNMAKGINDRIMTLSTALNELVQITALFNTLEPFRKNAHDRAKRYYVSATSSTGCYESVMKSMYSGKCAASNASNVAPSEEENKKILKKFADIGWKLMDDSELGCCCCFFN
Procedure, shortened: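 E-scores (a modified Wilcoxon-Mann-Whitney statistic) were assigned by the Universal PBM Analysis Suite to every ungapped eight-base word pooled with its reverse complement. The input came from universal all-10-mer Agilent arrays made double-stranded by primer extension and probed with GST-tagged yeast transcription factors at about 100-200 nM. Fluorescent anti-GST detected bound protein, and masliner normalised the scans.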

Row | Sequence | PBM E-score
1 | AGTCTCAA | -0.113
2 | GAGTGGCA | -0.1
3 | ACTACCTG | 0.0162
4 | GTACACAC | 0.158
5 | ACAAGGCA | -0.0526
6 | CAGCCACG | -0.025
7 | CCCCCATC | -0.185
8 | CCTAATTA | 0.108
9 | AATCCGGC | 0.0673
10 | GTCCTTAA | -0.0118
11 | CGTAATAG | 0.072
12 | TAGGTCAA | 0.00894
13 | ATAGTCTA | 0.072
14 | TCCGTCCA | 0.1
15 | CCACCTGC | -0.11
16 | CAGTCATC | -0.26
17 | CGTACCGA | -0.0339
18 | CCTTTCTC | -0.11
19 | CTGCATCC | -0.0871
20 | ACAAACAA | 0.203
21 | ATATATTC | 0.326
22 | GGGTATTA | 0.0508
23 | ACGAGGTC | 0.0631
24 | ACCCGAAA | 0.0532

Row | Sequence | PBM E-score
25 | AGCATTAT | 0.207
26 | GCGGGTAA | -0.107
27 | CATAGAGG | 0.00683
28 | GGCCGTAC | -0.0178
29 | ATACCGAG | -0.118
30 | CGTCATGA | -0.0962
31 | ATATGTGC | -0.0166
32 | AATTAGGC | 0.154
33 | CGTGAACA | 0.00947
34 | CTCATTTC | 0.0132
35 | ACTGGTAC | -0.141
36 | ATTTGCCC | -0.146
37 | CCCTCCTC | -0.237
38 | ACCACTCG | 0.0665
39 | GTAGTGGA | 0.0676
40 | AGTCTTTG | 0.0289
41 | AAATAAGT | 0.295
42 | ATAGCAGC | -0.127
43 | ATACATAC | 0.0684
44 | ACCCTAGC | -0.263
45 | TAACAGCA | 0.18
46 | ACGGTTAG | -0.124
47 | GCTGAGGA | -0.194
48 | AACAGCAC | 0.0684

Row | Sequence | PBM E-score
49 | AGGAATGC | -0.0532
50 | AATCCGAG | -0.0191
51 | CTTTGACC | 0.104
52 | TCTTTCAA | -0.046
53 | GGCCTTGA | -0.0647
54 | CGGATTCA | 0.00016
55 | GCATCGGA | 0.0661
56 | AATCTCTC | 0.16
57 | ACGTACCA | 0.0664
58 | GAGCTTCA | 0.0668
59 | AGTTTCTG | 0.141
60 | GTTTTGCA | 0.0627
61 | AGCTCTCA | -0.135
62 | CGAACGAA | 0.198
63 | CTAAGCAA | -0.00495
64 | AAGCTCTG | -0.0801
65 | GTTTAGTA | 0.22
66 | ACGAATTG | 0.0671
67 | GCGGTTAC | 0.0342
68 | CAAGTTTA | 0.16
69 | GATCGAAC | -0.149
70 | CCCAGTGC | -0.0946
71 | CACATCTA | 0.213
72 | GTACCCAA | -0.0659

Row | Sequence | PBM E-score
73 | CTGCCCTC | -0.315
74 | CAGAACCC | -0.176
75 | AGTATACC | 0.0685
76 | GACTAGTC | -0.222
77 | GCGACCAC | -0.172
78 | AGAACCGA | -0.0242
79 | ATCCGTGG | -0.0187
80 | ATACATTA | 0.229
81 | AGGCGACA | -0.148
82 | GATATGGA | 0.196
83 | AGGTTCGG | -0.185
84 | GCATTTCA | 0.11
85 | AATCCGAA | 0.162
86 | CAGGGAAA | -0.0648
87 | AAGCTGGC | -0.105
88 | AGACCGGC | -0.264
89 | AATGTCCC | -0.159
90 | AGGGGTGA | -0.356
91 | CAAACGGG | -0.0584
92 | CTCGCTGA | -0.133
93 | GCGTAAAC | 0.0736
94 | GAACCGTA | -0.222
